# Experimental data published in patent US9497963B2, “Methods and compositions for control of gypsy moth, Lymantria dispar” (Simon Fraser University, priority 2008, dated 2016).
# Values joined by “and” are separate entries in the source; they are usually repeats but may differ in a detail not shown here. Identical values can stand only once. The name of at least one read-out is uncertain.
# Tested on: third instar gypsy moth larvae
# Test: Feeding deterrence, oak leaf disc choice test (Example 13)
# Type: in vivo, Lymantria dispar
# Conditions: oak leaf discs, choice between treated and control disc for 17.5 hours, ((C−T)/(C+T))*100
# Description: Gypsy moth larvae were tested at the Canadian Forest Service, for feeding deterrence. A selected set of compounds, based on the results with the electroantennogram testing and also based on feeding deterrence assay results with the cabbage looper, T. ni. The experiment was done with third instar larvae and oak leaf discs. Larvae were left to choose between a treated and a control disc for 17.5 hours. Measurements of leaf areas were used to calculate the amount of leaf consumed from control (C) and treated (T) leaves. Feeding deterrence was calculated using the following formula: ((C−T)/(C+T))*100, and expressed in percent, where C=area of control leaf consumed and T=area of treated leaf consumed.
row,SMILES,Feeding Deterrence (%)
1,"CCOc1ccc(OCC)cc1 [3c{2,2}, 1,4-Diethoxy benzene]",36.54%
2,"CCCOc1ccccc1OCCC [3a{3,3}, 1,2-Dipropoxy benzene]",53.57%
3,"C=CCOc1ccc(OCC=C)cc1 [3c{6,6}, 1,4-Diallyloxy benzene]",62.01%
4,"C=CCc1ccc(O)c(OC)c1 [eugenol, 2-methoxy-4-(2-propenyl) phenol, reference compound]",−0.76%
5,"C=CCOc1ccccc1OCC=C [3a{6,6}, 1,2-Diallyloxy benzene]",79.87%
6,"CCOc1cccc(OCC)c1 [3b{2,2}, 1,3-Diethoxy benzene]",26.42%
7,"CCCCOc1ccccc1OCCCC [3a{4,4}, 1,2-Dibutoxy benzene]",33.4%
8,"C=CCOc1cccc(OCC=C)c1 [3b{6,6}, 1,3-Diallyloxy benzene]",61.1%
9,"CCCOc1ccc(OCCC)cc1 [3c{3,3}, 1,4-Dipropoxy benzene]",42.79%
10,"CCCOc1ccc(OC)cc1 [3c{1,3}, 1-methoxy-4-propoxy-benzene]",13.86%
11,"C=CCOc1cccc(OCCC)c1 [3b{3,6}, 1-allyloxy-3-propoxybenzene]",37.33%
12,"CCCOc1cccc(OCCC)c1 [3b{3,3}, 1,3-Dipropoxy benzene]",46.55%
13,"COc1ccc(OC)cc1 [3c{1,1}, 1,4-Dimethoxy benzene]",−8.64%
14,"CCCOc1ccc(OCC)cc1 [3c{2,3}, 1-ethoxy-4-propoxy benzene]",47.11%
15,"CCOc1ccccc1OCC [3a{2,2}, 1,2-Diethoxy benzene]",3.59%

# Same assay, conditions: oak leaf discs, choice between treated and control disc for 17.5 hours, ((C−T)/(C+T))*100, listed as 3c{3, 6}
row,SMILES,Feeding Deterrence (%)
1,"C=CCOc1ccc(OCCC)cc1 [3c{3,6}, 1-allyloxy-4-propoxybenzene]",71.1% and 53.44%

# Tested on: male gypsy moth antenna response to pheromone (+)-1
# Test: EAG short-term (STI) and long-term (LTI) inhibition of pheromone signaling (Example 5)
# Set-up: species or system Lymantria dispar
# Conditions: mixed plume (+)-1 100 ng + compound 100 μg (puff v); negative = enhancement; mean ± S.E.
# Description: The puffs are numbered i-vi and were: i=air, ii=pure pheromone (+)-disparlure, (+)-1, (100 ng), iii-v=disparlure mixed with the test compound, the latter at three different doses, vi=pure (+)-1. Depolarizations from the resting potential are labeled d; hyperpolarizations seen during the recovery phase after a puff are labeled r. Subscripts refer to the puff number. FIG. 5A. Typical trace for compound 3c{2,3}. FIG. 5B. Typical trace for compound 3a{4,4}.
# For other compounds, EAG traces were recorded as follows: a fully dislodged antenna from a male gypsy moth was mounted on the end of a reference electrode (a glass capillary with a silver wire, filled with buffered saline: 5 mM NaH2PO4, 10 mM Na2SO4, 4.5 mM KHCO3, 18 mM MgCl2, 4 mM CaCl2, 6 mM KCl, the pH is adjusted to 6.8 using 5 mM Na2HPO4). The tip of the antenna was severed with microscissors and placed in the recording electrode, which was mounted on a micromanipulator. A constant stream of air, that had been purified (charcoal filter), was blown over the antenna at a rate of 300 mL/min. […] Receptor potentials of the antennae in response to test stimuli were recorded with a Syntech IDAC probe, amplifier and interfaced board, and were analyzed with EAG Syntech Software Version 2.4 (1996). […] The EAG traces were evaluated as follows (see FIG. 5). […]
row,SMILES,Activity (%): short-term inhibition (STI)
1,"CCCCOc1ccccc1O [2a{4}, 2-Butoxy phenol]",56 ± 9 (10) %
